{
  "source": "PubChem BioAssay AID1458",
  "about": "(National Center for Advancing Translational Sciences (NCATS), 2008)",
  "note": "The campaign covered roughly 210,000 compounds. About 5,900 (2.8%) were called active. Inconclusive results, whose numbers are uncertain, are shown with a selection of clear calls. Calls follow the shape of the dose curve; as a rule, active = well fitted activation curve with a large enough effect; inconclusive = small, poorly fitted or top-dose-only effect; inactive = no such curve, though single readings can be large or run the other way. Where the call is inconclusive, the potency comes from a doubtful curve fit. Potency is read from the fitted curve at half-maximal effect; tags tell the direction and shape of the fitted curve.",
  "data": [
    {"assay": "qHTS Assay for Enhancers of SMN2 Splice Variant Expression; also: nearly all actives have a fitted effect of over 55% in size; as to activity change, positive = activation: % of control where 0% means no effect", "details": "HEK293 SMN2-luciferase splicing reporter, luminescence, 30-36 h; activity change, positive = activation: at 46.1 µM (top of the series)", "in_short": "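qHTS luciferase splicing reporter: luminescence rises when SMN2 exon 7 is included in transfected HEK293 cells. Compound exposure lasted 30-36 h at 37C, with 4.5 mM final sodium butyrate as control, followed by a ONE-Glo read.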", "values": [
      {"molecule": "CCOC(=O)c1c(C)oc2ncnc(Nc3cccc(C(F)(F)F)c3)c12", "activity change, positive = activation": "inactive: -5.75%"},
      {"molecule": "Cc1ccccc1N1CCN(C2=NC(=O)/C(=C\\c3cccs3)S2)CC1", "Potency": "inconclusive: 1.58 µM [activator, full curve, poor fit]"},
      {"molecule": "CCOc1ccc2nc(N3CCCC(C(=O)NCCc4ccc(Cl)cc4)C3)sc2c1", "note": "(centres undefined)", "Potency": "inconclusive: 1.41 µM [activator, full curve]"},
      {"molecule": "Cc1cc(N(CCO)CCO)ccc1N=Nc1cc(F)ccc1F", "Potency": "inconclusive: 12.6 µM [activator, partial curve]"},
      {"molecule": "O=C(Nc1nc(-c2ccccn2)cs1)C1CC1", "Potency": "inconclusive: 5.62 µM [activator, partial curve, poor fit]"},
      {"molecule": "CCCCCCCCCCCCCCCCOCC(COP(=O)([O-])OCC[N+](C)(C)C)OC", "note": "(centres undefined)", "Potency": "inconclusive: 2.82 µM [activator, single point]"},
      {"molecule": "Cc1cc(C(=O)NCCCN2CCOCC2)n(-c2ccccc2)n1", "Potency": "inconclusive: 31.6 µM [activator, single point]"},
      {"molecule": "CC(=O)Nc1ccc(Nc2ccc3c4c(cc(=O)n3C)-c3ccccc3C(=O)c24)cc1", "Potency": "inconclusive: 0.708 µM [activator, full curve, poor fit]"},
      {"molecule": "CCN(c1ccccc1)S(=O)(=O)c1ccc(Cl)c(NC(=O)CSc2nncs2)c1", "activity change, positive = activation": "inactive: -7.58%"},
      {"molecule": "COc1ccc(/C=C/c2nc(C#N)c(N3CCCCC3)o2)cc1OC", "activity change, positive = activation": "inactive: -8.36%"},
      {"molecule": "CCc1ccc(NC(=O)Cn2ncn3c(cc4ccccc43)c2=O)cc1", "Potency": "inconclusive: 0.158 µM [activator, full curve, poor fit]"},
      {"molecule": "Cc1noc(C)c1COc1ccc(C(=O)OCC(=O)NC(=O)C2COc3ccccc3O2)cc1", "note": "(centres undefined)", "Potency": "inconclusive: 31.6 µM [activator, single point]"},
      {"molecule": "CCc1cccc(CC)c1NC(=O)CN(C)S(=O)(=O)c1ccc2c(c1)n(C)c(=O)c(=O)n2C", "activity change, positive = activation": "inactive: 0.262%"},
      {"molecule": "O=C(c1csnn1)N1CCC2(CC1)CN(c1ccccn1)C2", "activity change, positive = activation": "inactive: -19.2%"},
      {"molecule": "O=C(CSc1nnc2scc(-c3ccccc3)n12)Nc1ccc2c(c1)OCCO2", "Potency": "inconclusive: 0.0141 µM [activator, full curve, poor fit]"},
      {"molecule": "O=c1c2ccccc2nc(SCc2cn3ccsc3n2)n1-c1ccccc1F", "Potency": "inconclusive: 6.31 µM [activator, partial curve, poor fit]"},
      {"molecule": "COc1ccc(OC)c2sc(NC(=O)c3ccc(Br)s3)nc12", "activity change, positive = activation": "inactive: 15.6%"},
      {"molecule": "O=C(c1cc(-c2ccc(Cl)c(Cl)c2)on1)N1CCCC1", "Potency": "active: 11.2 µM"},
      {"molecule": "COc1ccc2c(c1[N+](=O)[O-])CCC/C2=N/OC(=O)c1cccc2ccccc12", "activity change, positive = activation": "inactive: -4.81%"},
      {"molecule": "COc1ccc(Nc2nc3ccccc3n3cnnc23)cc1", "Potency": "inconclusive: 25.1 µM [activator, single point]"},
      {"molecule": "Nc1ccc(N=Nc2ccccc2)c(N)c1", "Potency": "active: 28.2 µM"},
      {"molecule": "O=C1CCCCCN1CP(=O)(O)CCc1ccccc1", "Potency": "inconclusive: 0.794 µM [activator, full curve]"},
      {"molecule": "CCn1cc(CNC(=O)NC2CCCCC2)c(C)n1", "Potency": "inconclusive: 11.2 µM [activator, partial curve, poor fit]"},
      {"molecule": "Cc1ccc(CCNC(=O)CCCc2nnc3n(C)c(=O)c4sccc4n23)cc1", "activity change, positive = activation": "inactive: -4.2%"},
      {"molecule": "CSCc1ccc(C(=O)Nc2cccc(C)c2C)cc1", "Potency": "active: 20 µM"},
      {"molecule": "Cc1cccc(NC(=O)Nc2ccncc2)c1", "Potency": "inconclusive: 12.6 µM [activator, partial curve]"},
      {"molecule": "COc1ccc(-n2ncc3c(NCc4ccccn4)ncnc32)cc1", "Potency": "inconclusive: 14.1 µM [activator, single point]"},
      {"molecule": "CCOC(=O)c1sc2nc(C)cc(C)c2c1N", "Potency": "inconclusive: 25.1 µM [activator, single point]"},
      {"molecule": "CCC(C)(C)c1nnc(NC(=O)c2cccc([N+](=O)[O-])c2)s1", "Potency": "inconclusive: 3.16 µM [activator, full curve]"},
      {"molecule": "COc1cccc(-c2nc(=S)c3c(n2CCCO)CCCC3)c1", "Potency": "inconclusive: 22.4 µM [activator, partial curve, poor fit]"},
      {"molecule": "COc1ccc(Cc2nc(-c3cccs3)no2)cc1", "Potency": "inconclusive: 22.4 µM [activator, single point]"},
      {"molecule": "Cc1cccc(-c2noc(-c3ccoc3C)n2)c1", "Potency": "inconclusive: 25.1 µM [activator, single point]"},
      {"molecule": "O=C(NCc1ccco1)c1ccc(NC(=O)C2COc3ccccc3O2)cc1", "note": "(centres undefined)", "Potency": "inconclusive: 3.16 µM [activator, full curve, poor fit]"},
      {"molecule": "CCN=c1scc(-c2ccco2)n1/N=C/c1ccc(O)cc1", "Potency": "inconclusive: 22.4 µM [activator, single point]"},
      {"molecule": "CCn1c(=O)cc(SCC(=O)N2CCN(C(=O)c3ccco3)CC2)c2ccccc21", "Potency": "inconclusive: 11.2 µM [activator, partial curve]"},
      {"molecule": "CCOc1cc(-c2cc(-c3ccc(C)cc3)nc(N)c2C#N)ccc1O", "Potency": "inconclusive: 0.708 µM [activator, partial curve, poor fit]"},
      {"molecule": "Cc1csc(NC(=O)c2cc3c(s2)-c2ccccc2OC3)n1", "Potency": "inconclusive: 35.5 µM [activator, single point]"},
      {"molecule": "O=C(/C=C/Nc1cccc(O)c1)c1ccccc1", "Potency": "inconclusive: 31.6 µM [activator, single point]"},
      {"molecule": "Cc1ccc(NC(=O)CN2C(=O)S/C(=C/c3ccc(-c4cccc(C(=O)O)c4)o3)C2=O)cc1", "Potency": "inconclusive: 7.08 µM [activator, partial curve]"},
      {"molecule": "Cc1cccc2nc(CSCc3ccco3)cn12", "Potency": "active: 11.2 µM"},
      {"molecule": "CCn1c(COc2ccccc2C)nc2ccccc21", "Potency": "inconclusive: 12.6 µM [activator, single point]"},
      {"molecule": "CC(=O)NC(C(=O)NCC(N)=O)C(C)C", "note": "(centres undefined)", "Potency": "inconclusive: 11.2 µM [activator, partial curve, poor fit]"},
      {"molecule": "Cc1ccc(NC(=O)c2ccc(Br)o2)cc1S(=O)(=O)N(C)C", "Potency": "inconclusive: 11.2 µM [activator, partial curve]"},
      {"molecule": "Cc1cc(C(=O)CN2CC(C)OC(C)C2)c(C)n1-c1ccccc1", "note": "(centres undefined)", "Potency": "inconclusive: 10 µM [activator, partial curve]"}
    ]}
  ]
}
